Screen size: about 360,000 compounds; about 6,000 (1.7%) were called active. This list was built around the results that the source calls inconclusive (neither active nor inactive); the mix of calls is not that of the screen. Calls come from the whole dose curve; as a rule, active = well fitted cell-killing curve with a large enough effect; inconclusive = small, poorly fitted or top-dose-only effect, or effect the other way; inactive = flat fitted curve, though single readings scatter. Potencies of inconclusive entries are left out as doubtful fits.
assay: qHTS for induction of synthetic lethality in tumor cells producing 2HG: qHTS for the HT-1080-NT fibrosarcoma cell line; conditions: HT-1080-NT fibrosarcoma viability, CellTiter-Glo ATP luminescence, 48 h; activity, negative = less viability: at 46.1 µM (top of the series) unless noted;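 note: NT is the 2HG producing partner of a matched IDH1 knockdown line; nearly all actives have a fitted effect of over 55% in size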;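 for activity, negative = less viability: 0% = DMSO-treated cells and -100% = media-only wells without cells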
Outline: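 Compounds were tested in concentration-response format on HT-1080-NT cells for 48 hours at 37 degrees C. Cell viability came from CellTiter-Glo luminescence; curves were classified by r2, response magnitude and activity.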
Potency is the fitted concentration of half-maximal effect; tags give direction and shape of the fitted curve.

Compound	Potency	activity, negative = less viability
C=C(C)COc1ccc(-c2[nH]ncc2Oc2ccccc2OCC)c(O)c1	inconclusive [cytotoxic, single point]	
Cc1ccc(S(=O)(=O)N2CCC3(CC2)OCCN3S(=O)(=O)c2cccs2)cc1	inconclusive [cytotoxic, single point]	
Cc1c(C(=O)N2CCOCC2)[nH]c2c1C(=O)CC(c1ccccc1Cl)C2 (stereo not drawn)	active: 5.01 µM	
CC1=C(C(=O)N(C(C)C)C(C)C)CC(CC(=O)NCCCCc2ccccc2)C(=O)N1Cc1ccc(C(C)(C)C)cc1 (stereo not drawn)	inconclusive [cytotoxic, single point]	
CC(C)(C)OC(=O)N1CCCN(C(c2cc3ccccc3o2)c2nnnn2C(C)(C)C)CC1 (stereo not drawn)	inconclusive [cytotoxic, single point]	
O=C(NCCN1CCC(n2c(=O)[nH]c3ccccc32)CC1)c1ccc(OC(F)(F)F)cc1	inconclusive [cytotoxic, single point]	
Cc1cc(Nc2nc3ccccc3nc2Cl)n(-c2ccc([N+](=O)[O-])cc2)n1	inconclusive [cytotoxic, single point]	
Cc1ccc(-c2cc(C(=O)N3CCN(c4ccc(O)cc4)CC3)c3ccccc3n2)cc1	inconclusive [cytotoxic, single point]	
COc1ccc(-c2onc(C)c2-c2ccc3c(c2)OCCO3)c(O)c1	inconclusive [cytotoxic, single point]	
O=C(NCCN1CCOCC1)c1sc2cc(Cl)ccc2c1Cl	inconclusive [cytotoxic, single point]	
COc1ccc2c(/C=C/c3cc[n+](C)cc3)c[nH]c2c1		inactive: -22.1%
COCCN(C(=O)c1cccc(-n2cnnn2)c1)c1c(N)n(CC(C)C)c(=O)[nH]c1=O		inactive: 7.69%
O=C(Nc1ccccc1)Nc1cccc(NC(=O)Nc2ccccc2)c1F		inactive: -3.27%
O=C(Nc1ccc([N+](=O)[O-])cc1)C(=O)Nc1cccc(C(=O)O)c1	inconclusive [cytotoxic, single point]	
Cc1ccc(N=Nc2ccc(N)cc2C)c(S(N)(=O)=O)c1	inconclusive [rising, full curve, poor fit]	
CC(=O)NC(c1cccc([N+](=O)[O-])c1)c1ccc2cccnc2c1O (stereo not drawn)		inconclusive: -4.57% [cytotoxic]
COC(=O)c1ccccc1COc1cccn2c(N(C)Cc3cccs3)c(C)nc12	inconclusive [cytotoxic, single point]	
COc1ccc(Cc2c(-c3ccc(C)cc3)nc3ccc(Cl)cn23)c(C)c1	inconclusive [cytotoxic, single point]	
COc1ccc(CN2CCCC(CO)(Cc3ccc(F)cc3F)C2)cc1 (stereo not drawn)	inconclusive [cytotoxic, partial curve]	
O=C(CCc1ccccc1O)N/N=C/c1ccc(Sc2cccc3cccnc23)o1	inconclusive [cytotoxic, single point]	
COc1ccc(/C=N/NC(=O)c2ccc3ccccc3c2)cc1OS(=O)(=O)c1ccc(NC(C)=O)cc1	active: 6.31 µM	
Oc1ccc2ccccc2c1C=Nc1ccccc1-c1nc2ccccc2[nH]1	inconclusive [cytotoxic, single point]	
Cc1c(C(=O)N2CCCCC2)oc2ccc(S(=O)(=O)N3CC(C)CC(C)C3)cc12 (stereo not drawn)	inconclusive [cytotoxic, partial curve]	

Compound	Potency	activity, negative = less viability
O=C(CSC1=NS(=O)(=O)c2cc(F)ccc2N1)NCc1ccccc1Cl		inactive: -0.757%
CCCN1C/C(=C/c2ccc3c(c2)OCO3)C(=O)/C(=C/c2ccc3c(c2)OCO3)C1	inconclusive [cytotoxic, partial curve]	
O=C(CCS(=O)(=O)c1cccc2nsnc12)N1CCN(c2ccccc2F)CC1		inconclusive: 39.3%
O=C(Oc1cccc2cccnc12)c1cccc([N+](=O)[O-])c1	inconclusive [cytotoxic, single point]	
O=C(Nc1ccc2c(c1)CCC2)c1cnn2c1NC(c1ccco1)CC2C(F)(F)F (stereo not drawn)	inconclusive [cytotoxic, single point]	
N#C/C(=C\c1c[nH]c2ccc(Br)cc12)c1ccccn1	active: 25.9 µM	
CCc1cc(C(=O)N/N=C/c2ccc(O)cc2O)c2ccccc2n1	inconclusive [cytotoxic, full curve]	
CN1CC(=O)N(CC(=O)NCc2ccc3c(c2)OCO3)C1=O		inactive: -0.263%
C#CCN(C[C@H]1[C@H](OC(=O)NCc2ccccc2)[C@H](OC(=O)NCc2ccccc2)C[C@H]2C(=O)N(c3ccccc3)C(=O)[C@@H]12)S(=O)(=O)c1ccc(C)cc1		inactive: 0.494%
CN(C)S(=O)(=O)c1cccc(NC(=O)CSc2nnnn2-c2ccccc2)c1	inconclusive [cytotoxic, single point]	
CN1c2ccccc2C(C)(C)C12C=Cc1cc(O)ccc1O2 (stereo not drawn)	inconclusive [cytotoxic, single point]	
O=C(Nc1nc2cc3c(cc2s1)OCCO3)c1ccc([N+](=O)[O-])o1	inconclusive [cytotoxic, full curve]	
O=C(NCCc1ccccc1)C1Cc2c(-c3ccc4c(c3)OCO4)ccnc2O1 (stereo not drawn)	inconclusive [cytotoxic, single point]	
Cc1ccc([C@@H]2CC(=O)[C@@H]3CN(S(=O)(=O)c4ccc(C)cc4)[C@H](c4ccccc4F)C[C@@H]3N2S(=O)(=O)c2ccc(Cl)cc2)cc1		inactive: 19.9%
CCN(CC)S(=O)(=O)c1ccc2c(c1)N(CC(=O)Nc1cccnc1Cl)C(=O)CO2		inactive: -0.257%
Fc1ccc(N=C2NN=C(c3cc(F)ccc3F)CS2)cc1	inconclusive [cytotoxic, single point]	
O=C(N/N=C/c1ccccc1Cl)c1n[nH]c2c1CCCC2		inactive: 3.44%
O=C1/C(=C/c2ccccn2)SC(=S)N1Cc1ccccc1	inconclusive [rising, partial curve]	
Cn1cnc([N+](=O)[O-])c1S(=O)(=O)Oc1ccc(Cl)cc1	active: 20.6 µM	
COc1ccc(NS(=O)(=O)c2ccc(NC(=O)c3ccccn3)cc2)cc1		inactive: -2.95%
O=C(NCCCNc1ccc([N+](=O)[O-])cc1)C(F)(F)F		inactive: 8.72%
COc1ccc([C@@H]2[C@@H](C)N(c3ccccc3)c3ccccc3C(=O)N2Cc2ccccc2)cc1	inconclusive [cytotoxic, single point]	
O=C(N/N=C(\Cc1ncc[nH]1)c1ccccc1)c1cccnc1	inconclusive [cytotoxic, partial curve]	

Compound	Potency	activity, negative = less viability
CC(C(=O)Nc1ccccc1-c1ccccc1)N(C)Cc1nc2ccccc2c(=O)[nH]1 (stereo not drawn)	active: 23.1 µM	
CCCCCC(=O)N1C[C@H](n2cc(-c3ccc(F)cc3)nn2)[C@@H](O)C[C@@H]1c1ccc(Cl)cc1	active: 16.4 µM	
COc1ccccc1[C@H]1C(c2cccc(Cl)c2)=NN(c2ccccc2)[C@@H]1CO	inconclusive [cytotoxic, single point]	
CN(C)C=NC(=O)c1ccc(N2CCN(c3ncc(C(F)(F)F)cc3Cl)CC2)cc1	inconclusive [cytotoxic, partial curve]	
c1ccc2c(NCCc3c[nH]c4ccccc34)c3ccccc3nc2c1	inconclusive [cytotoxic, single point]	
Nc1c(C(=O)Nc2nccs2)sc2nc(-c3cccs3)cc(C(F)(F)F)c12	inconclusive [cytotoxic, single point]	
CCOC(=O)C1=C(CC)Nc2ccccc2N/C1=N\S(=O)(=O)c1ccc2ccccc2c1	active: 18.4 µM	
N#CC1(NC(=O)CSc2nc3ccccc3s2)CCCCC1		inactive: 0.713%
Cn1c(-c2ccccc2)cc2c3no[n+]([O-])c3ccc21	active: 2.31 µM	
CCCCCCSc1ccc([C@@H]2[C@@H]3C(=O)N(C)C(=O)[C@@H]3[C@]3(C(=O)OC)CCCCN23)cc1	inconclusive [cytotoxic, single point]	
O=S(=O)(NCCC1CC1(Cl)Cl)c1ccc(Cl)cc1 (stereo not drawn)	inconclusive [cytotoxic, single point]	
CN(C)C(CNC(C(=O)Nc1ccc([N+](=O)[O-])cc1Br)c1ccccc1)c1ccccc1 (stereo not drawn)	active: 23.1 µM	
O=C(c1ccccc1)N1N=C(c2ccccc2)CC1c1ccccc1O (stereo not drawn)	active: 23.1 µM	
Cc1cccc(C(=O)NC(=S)N2CCN(C)CC2)c1	active: 12.6 µM	
Cc1ccc(NC=C(S(=O)(=O)c2ccccc2)S(=O)(=O)c2ccccc2)c(C)c1		inactive: 12%
Cc1cc(N/N=C/c2ccccc2O)nc(-c2ccccc2O)n1		inactive: -21.9%
CCC1=Nc2cc(C(=O)NCC3CCCO3)ccc2Sc2ccc(Cl)cc21 (stereo not drawn)	inconclusive [cytotoxic, partial curve]	
O=C(Nc1ccccc1O)c1ccc(Cl)cc1	inconclusive [cytotoxic, single point]	
CCCCN(CCCNC(=O)C1CCN(C(=O)c2cc3sccc3n2C)CC1)Cc1ccccc1	active: 18.4 µM	
CCn1cc(C(=O)NCc2ccc(Cl)cc2)c(=O)c2cc(S(=O)(=O)N3CCOCC3)ccc21		inactive: -10.3%
CC(=O)N1C(C(=O)O)Cc2c([nH]c3ccccc23)C1C (stereo not drawn)		inactive: -1.91%
CCOc1ccc2[nH]c3c(NCCc4ccc(OC)c(OC)c4)ncnc3c2c1	inconclusive [cytotoxic, partial curve]	
